Results reported in PubChem BioAssay AID1345082 (National Center for Advancing Translational Sciences (NCATS), 2018).
About 4,000 (4.3%) of roughly 94,000 compounds were called active. The inconclusive results got no clear call from the source; some entries with a clear call stand among them for comparison. Calls come from the whole dose curve; as a rule, active = well fitted inhibition curve with a large enough effect; inconclusive = small, poorly fitted or top-dose-only effect; inactive = no such curve, though single readings can be large or run the other way. A potency beside an inconclusive call is a rough fit, not a confirmed value.

assay: Cytotoxic Profiling in NIH 3T3 Cell Line of Diverse Libraries Using Quantitative High-Throughput Screening; settings: NIH 3T3 viability, CellTiter-Glo ATP luminescence, 48-72 h; activity change, negative = cytotoxicity: at 96.7 µM (top of the series) unless noted; series mostly up to 96.7 µM; note: nearly all actives have a fitted effect of over 55% in size
Method in brief: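 Viability of NIH 3T3 cells after 48 or 72 hr compound treatment at 37 °C was assessed by CellTiter-Glo, with luminescence imaged following a 10 min room-temperature step.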
% is set by controls: 0 for no effect and ±100 for the full control effect; potency is the fitted concentration of half-maximal effect; tags give direction and shape of the fitted curve.

Row | SMILES | Potency | activity change, negative = cytotoxicity | outcome
1 | O=C(Nc1cccnc1)[C@@H]1C[C@@H](c2ccc(F)cc2)N([S+](=O)([O-])c2ccccc2)C1 | inconclusive: 79.4 µM [inhibitor, partial curve] |  | 
2 | COc1ccccc1C(=O)N1CCC(Oc2ccc(C(N)=O)cn2)CC1 |  | inactive: -0.274% | 
3 | N#Cc1cccc(CN2CC3(COCC(=O)N(Cc4cccc(OC(F)(F)F)c4)C3)C2)c1 | active: 28.2 µM |  | 
4 | Cn1ncc2c(C(=O)NC3CCC3)cc(-c3cccc(C(F)(F)F)c3)nc21 |  | inactive: -4% | 
5 | CC(Oc1ccccc1)C(=O)N1CCCN(c2cc(-c3ccc(Cl)cc3)[nH]n2)CC1 (centres undefined) | inconclusive: 44.7 µM [inhibitor, partial curve, poor fit] |  | 
6 | C[C@]1(CO)[C@H]2Cc3sc(NC(=O)c4cccc(F)c4)nc3[C@@H](CC(=O)NCc3ccco3)[C@]2(C)CC[C@H]1O | inconclusive: 50.1 µM [inhibitor, partial curve, poor fit] |  | 
7 | Cc1ncccc1C(=O)N1CCC2(CC1)NCCc1c2[nH]c2ccccc12 |  | inactive: -14% | 
8 | CN(C)CCN1CC2(CCCN(C(=O)CCc3cc(=O)[nH]o3)C2)CCC1=O (centres undefined) |  | inactive: -9.06% | 
9 | Cc1ccsc1C(=O)N1CC(Oc2ccc(-c3nc(-c4ccccc4)no3)cc2)C1 |  |  | inactive
10 | O=C1C[C@@H]2CCN(C(=O)c3ccccc3)C[C@@H]2CCN1CCN1CCNC1=O |  | inactive: -14.6% [at 174 µM] | 
11 | Cn1cc([C@@H](NC(=O)c2cccc3c2NCCC3)C2CC(O)C2)cn1 (some centres undefined) | inconclusive: 79.4 µM [inhibitor, partial curve, poor fit] |  | 
12 | COc1ccc(N2Cc3c(NCC(C)(C)C)ncnc3N(C)CC2=O)cc1 |  | inactive: -21.9% | 
13 | COc1ccc(N2CC(C(=O)N3CCCOCC3)CC2=O)cc1Cl (centres undefined) |  | inactive: -8.14% | 
14 | COC(=O)c1ccccc1NC(=O)CN1C(=O)NC2(CCC(C)CC2)C1=O (centres undefined) | inconclusive: 63.1 µM [inhibitor, partial curve, poor fit] |  | 
15 | Cc1noc([C@@H]2CN(C(=O)CC3CCCC3)C[C@H]2CO)n1 |  | inactive: -10.7% | 
16 | Cc1nnc2ccc(N3CCN(C(=O)c4ccc(Cl)nc4)CC3)nn12 |  | inactive: -25.1% | 
17 | COc1cccc(CN2CCc3nc(C)nc(-c4ccc(O)cc4)c3C2)c1 | inconclusive: 50.1 µM [inhibitor, partial curve, poor fit] |  | 
18 | N#Cc1ccc(CN2CCC3(C2)C(=O)N(c2ccccc2)c2ccccc23)cc1 (centres undefined) | inconclusive: 15.8 µM [inhibitor, full curve] |  | 
19 | COc1cc(CNC(=O)c2cc(-c3cccc(N(C)C)c3)cc3ncn(C)c23)ccn1 | inconclusive: 56.2 µM [inhibitor, partial curve, poor fit] |  | 
